Results as given in the supplement of paper PMC3334620.
In all, about 33,000 sequences were measured (“E-score (-0.5 to 0.5)”: median about -0.035, highest 2% from about 0.34 on). Some of the results follow.

target: T1, Mot3 (UniProt P54785); assay: PBM E-score (8-mer binding enrichment) (E-score (-0.5 to 0.5)); higher = stronger / more preferred TF binding; most listed sequences are background and not binding sites; conditions: protein concentration: 200 nM; construct: GST-full length
T1 sequence: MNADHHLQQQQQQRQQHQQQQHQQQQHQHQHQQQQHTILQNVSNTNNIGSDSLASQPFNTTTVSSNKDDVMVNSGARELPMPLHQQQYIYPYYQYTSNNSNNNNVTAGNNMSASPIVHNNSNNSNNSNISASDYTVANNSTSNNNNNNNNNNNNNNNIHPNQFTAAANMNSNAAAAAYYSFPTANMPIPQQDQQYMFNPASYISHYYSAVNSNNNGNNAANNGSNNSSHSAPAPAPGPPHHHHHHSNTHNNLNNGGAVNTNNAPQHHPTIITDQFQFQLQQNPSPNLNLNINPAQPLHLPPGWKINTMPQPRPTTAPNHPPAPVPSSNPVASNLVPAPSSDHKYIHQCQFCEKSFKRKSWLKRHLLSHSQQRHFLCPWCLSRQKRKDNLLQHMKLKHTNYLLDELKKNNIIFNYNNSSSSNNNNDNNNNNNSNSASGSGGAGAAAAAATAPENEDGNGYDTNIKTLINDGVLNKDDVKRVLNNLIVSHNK
Method in brief: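 Universal all-10-mer Agilent arrays, double-stranded by primer extension on fresh or once-stripped slides, were probed with about 100-200 nM GST-tagged yeast transcription factors made by PURExpress. Fluorescent anti-GST detected bound protein, and masliner normalised the scans. E-scores from the Universal PBM Analysis Suite were given to each ungapped eight-base word pooled with its reverse complement.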

| Sequence | PBM E-score |
| --- | --- |
| CAACCCCA | 0.0886 |
| CAAAGTGA | -0.0327 |
| CTCTGACA | 0.0111 |
| AATACCGT | -0.00924 |
| GCCGTGCC | 0.346 |
| TCAGTACA | 0.131 |
| CTACGAAA | -0.00286 |
| CATAAAGA | 0.174 |
| AGCACCAC | -0.22 |
| ATGTTCCC | 0.024 |
| AACTGCAA | -0.0216 |
| CACCGTGC | 0.0728 |
| CCCGGACC | -0.202 |
| CCGCGGAA | 0.00089 |
| ATAGGCGC | 0.249 |
| GAACTCAC | -0.064 |
| CTTGAAGC | -0.0746 |
| CGGATGCA | -0.217 |
| GGTGAGAC | -0.13 |
| GAATTTGC | -0.0228 |
| AGTCTTCC | -0.0105 |
| CCCCGTCA | -0.2 |
| ACGTATAA | 0.234 |
| ACCCCTAG | -0.208 |
| ATTCCAGC | -0.168 |

| Sequence | PBM E-score |
| --- | --- |
| CGACAATC | -0.149 |
| ACTAAAGT | 0.0146 |
| AGGAAAGC | 0.405 |
| AGTCCTCC | -0.221 |
| CCACGAGA | -0.283 |
| CCCAGACA | -0.174 |
| TATTTGGA | 0.0492 |
| GGCTATGA | -0.214 |
| CATAGGAA | 0.231 |
| GAGGACCA | -0.144 |
| GCACTGAC | -0.0708 |
| ACACAAAC | 0.207 |
| CCCGATGC | -0.292 |
| GCCCTGGA | -0.172 |
| AGAACCCA | -0.215 |
| ACACCAGT | -0.0584 |
| AATTCGTC | -0.0787 |
| ATCAATAG | -0.00649 |
| AACCCTTC | -0.117 |
| CTCCCTCA | -0.286 |
| CTAGAGTA | 0.0252 |
| ACTATCCA | -0.204 |
| ATAGGACA | -0.101 |
| CCACGTTA | 0.224 |
| AAATGGGG | -0.133 |

| Sequence | PBM E-score |
| --- | --- |
| CGCGCAAC | -0.041 |
| ATCCGTGC | 0.0629 |
| GTGTGTTA | 0.348 |
| AATCTAAT | 0.0108 |
| CGGCGGAA | -0.148 |
| ATGGACCA | 0.039 |
| AAGGCTTA | 0.134 |
| AAATGGCA | 0.101 |
| GTAGTATA | 0.148 |
| ATGGGACG | -0.215 |
| CAAAGGGC | -0.0614 |
| CATGCTCG | -0.112 |
| AAGGCCGT | -0.12 |
| CTTTTAAA | 0.107 |
| ATTACCTG | 0.336 |
| CCGCAGCA | -0.247 |
| ACGCTTGA | 0.106 |
| ACCGCATG | -0.181 |
| AGTGTTAC | 0.193 |
| AGGCGCCG | 0.222 |
| CGAAGGAA | 0.39 |
| AACGTAAT | 0.318 |
| AGGCTCGC | 0.121 |
| ATAAGGGA | -0.0511 |
| ATCGGAGC | -0.322 |

| Sequence | PBM E-score |
| --- | --- |
| ATGTTAAT | 0.338 |
| GAGGGACA | -0.248 |
| TCCGTTCA | -0.194 |
| AGAGTACG | -0.00983 |
| CCAGCCGC | -0.268 |
| AGATTAAA | 0.0194 |
| CCATTGAC | -0.0604 |
| ATTCTAAA | 0.119 |
| GTTGTACA | 0.25 |
| GGCCATGA | -0.223 |
| GCTTATGA | -0.0761 |
| GCCGTTGA | -0.125 |
| AACATTGG | 0.0641 |
| ATAGCTAC | 0.0401 |
| ACAATAAA | -0.0214 |
| CCCGTTAA | -0.00725 |
| GCTCGAGA | -0.218 |
| ACGACGCT | -0.0703 |
| CGACGTCC | 0.0279 |
| AGGTGTTA | 0.225 |
| AGACATCA | -0.134 |
| CAGGGTTA | -0.034 |
| ACTGTCAC | -0.251 |
| AAGTTGTA | 0.237 |
| CCACATCG | -0.121 |

| Sequence | PBM E-score |
| --- | --- |
| CGGGGATA | -0.188 |
| TCTCTGCA | -0.0721 |
| TCTGAAGA | -0.316 |
| ACGCCACC | -0.0804 |
| ATAATTTG | 0.0359 |
| AAACAACA | 0.271 |
| CGATTATC | -0.0722 |
| GAGAACGA | -0.0552 |
| CGGGGTCC | -0.122 |
| AGATCTCA | -0.0113 |
| GCTCGATA | -0.148 |
| CATCGACG | -0.168 |
| AGGCATTA | 0.297 |
| GGCTGTAA | 0.0664 |
| GTAGTGAC | 0.0296 |
| CGCATCCA | -0.106 |
| AAGGGTCG | -0.0478 |
| ACTAGCCG | -0.133 |
| CCTCTGCA | -0.113 |
| CAGCCCTC | -0.278 |
| AGGCGGTG | -0.0519 |
| CTATGGCA | -0.125 |
| TCATGCCA | 0.0828 |
| TCGTAAAA | 0.217 |
| CCTACGAC | 0.0236 |

| Sequence | PBM E-score |
| --- | --- |
| CGCTGAGC | -0.161 |
| CCAACCAA | -0.172 |
| ACACGGCC | 0.188 |
| ACTAACTA | -0.124 |
| CCGGAGGA | -0.351 |
| ATGGGCTA | 0.0399 |
| AAGTCTCG | -0.0604 |
| CAAAAGTA | 0.122 |
| CCGCGGGA | -0.23 |
| ACCGTAAG | -0.0964 |
| GACCGAAA | -0.12 |
| GGTTTTTA | 0.198 |
| AGTTGGGC | -0.177 |
| CCGTTGAG | -0.213 |
| ATGGCACA | -0.078 |
| CTCTCCAA | -0.133 |
| TCTTTTAA | 0.0191 |
| TCAGCGAA | -0.121 |
| CAGCTTCA | -0.0237 |
| AGATTATA | -0.0825 |
| ATTCTCCG | -0.174 |
| AAACACGA | 0.292 |
| ATTTTGTA | 0.192 |
| CACACGAG | 0.168 |
| CGTAGCGA | -0.285 |

| Sequence | PBM E-score |
| --- | --- |
| ACTCGAAT | 0.00379 |
| GAGTCCAC | -0.262 |
| CTAACGCA | 0.0496 |
| CCGCAAGG | -0.128 |
| ATTGCGGA | -0.112 |
| AAAACTGA | -0.1 |
| GATGGCAC | -0.154 |
| AGTCTGAC | -0.277 |
| CACGATTA | 0.163 |
| ATCCTTCG | -0.176 |
| GGTGGGTA | -0.0735 |
| CGCGACCA | -0.00815 |
| CGAGAAAA | -0.0261 |
| CTAATCGC | 0.00549 |
| CAGGGCTC | -0.354 |
| CACAAAAG | 0.0956 |
| AGTAATAT | 0.115 |
| CTCAGACC | -0.17 |
| GTGAGGTA | -0.0654 |
| CAGCCACC | -0.184 |
| AAATGGAA | -0.183 |
| ATTTAATA | 0.147 |
